By IC50 is meant the dose at which the fit gives 50% viability; where the fit passes the top or lowest dose, that dose stands as a limit. For AUC the same curve is integrated over the 256-fold range of doses and scaled to a fraction: 1 means no effect, lower means more sensitive. For some of these results: The top dose, if marked as inferred, was calculated from the reported fits.
Tests used:
Experiment in all cases: Viability of human cancer cell lines after 72 h of drug (GDSC screen)
Trametinib = compound: CC(=O)Nc1cccc(-n2c(=O)n(C3CC3)c(=O)c3c(Nc4ccc(I)cc4F)n(C)c(=O)c(C)c32)c1 [Trametinib]; details: top dose 1 µM
Description: (§1)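 Human cancer cell lines in 384-well plates, medium with 10% serum, drug for 72 h over a 256-fold dose range (nine 2-fold or five 4-fold steps up to the top dose). Adherent lines were fixed and stained with the nucleic acid dye Syto60, suspension lines read with resazurin; signal relative to control wells, capped at 0 and 100%. One two-parameter sigmoid per drug and line, fitted in a mixed model over all curves with the slope shared within a line.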

I-BET-762 = compound: CCNC(=O)C[C@@H]1N=C(c2ccc(Cl)cc2)c2cc(OC)ccc2-n2c(C)nnc21 [I-BET-762]; details: top dose 20 µM; top dose inferred
Description: as §1

PF-4708671 = compound: CCc1cncnc1N1CCN(Cc2nc3ccc(C(F)(F)F)cc3[nH]2)CC1 [PF-4708671]; details: top dose 10 µM; top dose inferred
Description: as §1

AV-951 = compound: COc1cc2nccc(Oc3ccc(NC(=O)Nc4cc(C)on4)c(Cl)c3)c2cc1OC [AV-951]; details: top dose 0.128 µM; top dose inferred
Description: as §1

KIN001-244 = compound: O=C(NC(COc1ccc2[nH]c(=O)[nH]c2c1)c1ccccc1)c1cccn(Cc2ccc(F)c(F)c2)c1=O [KIN001-244]; details: top dose 20 µM; top dose inferred
Description: as §1

HG-6-64-1 = compound: CCN1CCN(Cc2ccc(NC(=O)c3ccc(C)c(/C=C/c4cnc5[nH]ccc5c4OC)c3)cc2C(F)(F)F)CC1 [HG-6-64-1]; details: top dose 5.12 µM; top dose inferred
Description: as §1

## OVCA433 (ovary, adherent)
Trametinib
  AUC: 0.328
  IC50: 0.0195 µM
I-BET-762
  AUC: 0.931
  IC50: > 20 µM
PF-4708671
  AUC: 0.971
  IC50: > 10 µM
AV-951
  AUC: 0.969
  IC50: > 0.128 µM
KIN001-244
  AUC: 0.876
  IC50: > 20 µM

## OVK-18 (ovary, adherent)
Trametinib
  AUC: 0.873
  IC50: > 1 µM
I-BET-762
  AUC: 0.982
  IC50: > 20 µM
PF-4708671
  AUC: 0.906
  IC50: > 10 µM
AV-951
  AUC: 0.986
  IC50: > 0.128 µM
KIN001-244
  AUC: 0.892
  IC50: > 20 µM

## P12-ICHIKAWA (T-cell lymphoblastic leukaemia, suspension)
Trametinib
  AUC: 0.994
  IC50: > 1 µM
HG-6-64-1
  AUC: 0.907
  IC50: 4.15 µM
PF-4708671
  AUC: 0.926
  IC50: 9.81 µM
AV-951
  AUC: 0.994
  IC50: > 0.128 µM
KIN001-244
  AUC: 0.832
  IC50: 8.99 µM

## PC-3 (prostate, adherent)
Trametinib
  AUC: 0.98
  IC50: > 1 µM
HG-6-64-1
  AUC: 0.964
  IC50: > 5.12 µM
PF-4708671
  AUC: 0.96
  IC50: > 10 µM
AV-951
  AUC: 0.976
  IC50: > 0.128 µM
KIN001-244
  AUC: 0.822
  IC50: 15.2 µM

## PEO1 (ovary, adherent)
Trametinib
  AUC: 0.583
  IC50: 0.107 µM
I-BET-762
  AUC: 0.838
  IC50: 14.4 µM
PF-4708671
  AUC: 0.987
  IC50: > 10 µM
AV-951
  AUC: 0.986
  IC50: > 0.128 µM
KIN001-244
  AUC: 0.824
  IC50: 12.5 µM

## RCC-AB (kidney, adherent)
Trametinib
  AUC: 0.766
  IC50: 0.483 µM
I-BET-762
  AUC: 0.832
  IC50: 18.5 µM
PF-4708671
  AUC: 0.98
  IC50: > 10 µM
AV-951
  AUC: 0.972
  IC50: > 0.128 µM
KIN001-244
  AUC: 0.837
  IC50: 19.6 µM

## RCC-ER (kidney, adherent)
Trametinib
  AUC: 0.891
  IC50: > 1 µM
I-BET-762
  AUC: 0.977
  IC50: > 20 µM
PF-4708671
  AUC: 0.957
  IC50: > 10 µM
AV-951
  AUC: 0.985
  IC50: > 0.128 µM
KIN001-244
  AUC: 0.953
  IC50: > 20 µM

## RCC-FG2 (kidney, adherent)
Trametinib
  AUC: 0.693
  IC50: 0.255 µM
I-BET-762
  AUC: 0.971
  IC50: > 20 µM
PF-4708671
  AUC: 0.949
  IC50: > 10 µM
AV-951
  AUC: 0.978
  IC50: > 0.128 µM
KIN001-244
  AUC: 0.922
  IC50: > 20 µM

## RCC-JF (kidney, adherent)
Trametinib
  AUC: 0.498
  IC50: 0.0617 µM
I-BET-762
  AUC: 0.913
  IC50: > 20 µM
PF-4708671
  AUC: 0.968
  IC50: > 10 µM
AV-951
  AUC: 0.982
  IC50: > 0.128 µM
KIN001-244
  AUC: 0.888
  IC50: > 20 µM

## RCC-JW (kidney, adherent)
Trametinib
  AUC: 0.813
  IC50: 0.558 µM
I-BET-762
  AUC: 0.967
  IC50: > 20 µM
PF-4708671
  AUC: 0.976
  IC50: > 10 µM
AV-951
  AUC: 0.985
  IC50: > 0.128 µM
KIN001-244
  AUC: 0.896
  IC50: > 20 µM

## RCC-MF (kidney, adherent)
Trametinib
  AUC: 0.637
  IC50: 0.168 µM
I-BET-762
  AUC: 0.907
  IC50: > 20 µM
PF-4708671
  AUC: 0.891
  IC50: > 10 µM
AV-951
  AUC: 0.974
  IC50: > 0.128 µM
KIN001-244
  AUC: 0.723
  IC50: 6.61 µM

## RH-41 (rhabdomyosarcoma, adherent)
Trametinib
  AUC: 0.943
  IC50: > 1 µM
HG-6-64-1
  AUC: 0.81
  IC50: 2.18 µM
PF-4708671
  AUC: 0.981
  IC50: > 10 µM
AV-951
  AUC: 0.992
  IC50: > 0.128 µM
KIN001-244
  AUC: 0.965
  IC50: > 20 µM

## SCC90 (head and neck, adherent)
Trametinib
  AUC: 0.418
  IC50: 0.0339 µM
HG-6-64-1
  AUC: 0.8
  IC50: 3.81 µM
